Measured values: EPA's CvTdb concentration-time database
Further values from the same series stand in other lists.

Experiments:
Rat [1] = assay: concentration in brain after dosing; conditions: 3 h; dosed: 2-Methyltetrahydrofuran; 30 mg/kg; oral; Male; F344
Rat [2] = assay: concentration in plasma after dosing; conditions: 0.75 h; dosed: 2-Methyltetrahydrofuran; 10 mg/kg; oral; Male; F344
Rat [3] = assay: concentration in brain after dosing; conditions: 2 h; dosed: 2-Methyltetrahydrofuran; 10 mg/kg; oral; Female; F344
Rat [4] = assay: concentration in plasma after dosing; conditions: 6 h; dosed: 2-Methyltetrahydrofuran; 100 mg/kg; oral; Female; Harlan Sprague Dawley
Rat [5] = assay: concentration in plasma after dosing; conditions: 3 h; dosed: 2-Methyltetrahydrofuran; 10 mg/kg; iv; Female; F344
Rat [6] = assay: concentration in plasma after dosing; conditions: 8 min; dosed: 2-Methyltetrahydrofuran; 30 mg/kg; oral; Female; F344
Rat [7] = assay: concentration in plasma after dosing; conditions: 8 h; dosed: 2-Methyltetrahydrofuran; 400 mg/kg; oral; Male; F344
Rat [8] = assay: concentration in plasma after dosing; conditions: 1.5 h; dosed: 2-Methyltetrahydrofuran; 400 mg/kg; oral; Female; F344
Rat [9] = assay: concentration in plasma after dosing; conditions: 3 h; dosed: 2-Methyltetrahydrofuran; 30 mg/kg; oral; Female; F344
Rat [10] = assay: concentration in brain after dosing; conditions: 0.25 h; dosed: 2-Methyltetrahydrofuran; 10 mg/kg; oral; Female; F344
Rat [11] = assay: concentration in plasma after dosing; conditions: 4 h; dosed: 2-Methyltetrahydrofuran; 100 mg/kg; oral; Female; Harlan Sprague Dawley
Rat [12] = assay: concentration in plasma after dosing; conditions: 2 h; dosed: 2-Methyltetrahydrofuran; 10 mg/kg; iv; Male; F344
Rat [13] = assay: concentration in plasma after dosing; conditions: 2 min; dosed: 2-Methyltetrahydrofuran; 30 mg/kg; oral; Female; F344
Rat [14] = assay: concentration in plasma after dosing; conditions: 6 h; dosed: 2-Methyltetrahydrofuran; 100 mg/kg; oral; Female; Harlan Sprague Dawley; remark: listed apart in the source
Rat [15] = assay: concentration in brain after dosing; conditions: 8 h; dosed: 2-Methyltetrahydrofuran; 400 mg/kg; oral; Male; F344
Rat [16] = assay: concentration in plasma after dosing; conditions: 1 h; dosed: 2-Methyltetrahydrofuran; 30 mg/kg; oral; Male; F344
Rat [17] = assay: concentration in brain after dosing; conditions: 4 h; dosed: 2-Methyltetrahydrofuran; 400 mg/kg; oral; Female; Harlan Sprague Dawley
Rat [18] = assay: concentration in brain after dosing; conditions: 10 min; dosed: 2-Methyltetrahydrofuran; 10 mg/kg; iv; Female; F344
Rat [19] = assay: concentration in brain after dosing; conditions: 8 min; dosed: 2-Methyltetrahydrofuran; 10 mg/kg; oral; Female; F344
Rat [20] = assay: concentration in brain after dosing; conditions: 6 h; dosed: 2-Methyltetrahydrofuran; 100 mg/kg; oral; Female; Harlan Sprague Dawley
Rat [21] = assay: concentration in plasma after dosing; conditions: 40 min; dosed: Bromochloroacetic acid; 10 mg/kg; iv; Male; F344
Rat [22] = assay: concentration in plasma after dosing; conditions: dosed: Bromochloroacetic acid, 100 mg/kg, oral, Male, F344
Rat [23] = assay: concentration in plasma after dosing; conditions: dosed: Bromochloroacetic acid, 80 mg/kg, iv, Male, F344
Rat [24] = assay: concentration in plasma after dosing; conditions: dosed: Fluorotelomer alcohol 8+2, 160 mg/kg, oral, Female, Harlan Sprague Dawley
Rat [25] = assay: concentration in plasma after dosing; conditions: dosed: Fluorotelomer alcohol 8+2, 40 mg/kg, oral, Female, Harlan Sprague Dawley
Rat [26] = assay: concentration in plasma after dosing; conditions: dosed: Fluorotelomer alcohol 8+2, 48 mg/kg, oral, Male, Harlan Sprague Dawley
Rat [27] = assay: concentration in plasma after dosing; conditions: dosed: Fluorotelomer alcohol 8+2, 48 mg/kg, oral, Male, Harlan Sprague Dawley; remark: listed apart in the source
Rat [28] = assay: concentration in plasma after dosing; conditions: dosed: Formamide, 36 mg/kg, oral, Female, Harlan Sprague Dawley
Rat [29] = assay: concentration in plasma after dosing; conditions: dosed: Formamide, 36 mg/kg, oral, Female, Harlan Sprague Dawley; remark: listed apart in the source
Rat [30] = assay: concentration in plasma after dosing; conditions: dosed: Formamide, 90 mg/kg, iv, Male, Harlan Sprague Dawley
Rat [31] = assay: concentration in plasma after dosing; conditions: dosed: Formamide, 300 mg/kg, oral, Female, Harlan Sprague Dawley
Rat [32] = assay: concentration in plasma after dosing; conditions: dosed: Formamide, 90 mg/kg, iv, Male, Harlan Sprague Dawley; remark: listed apart in the source
Rat [33] = assay: concentration in plasma after dosing; conditions: dosed: Formamide, 30 mg/kg, iv, Female, F344
Rat [34] = assay: concentration in plasma after dosing; conditions: 1 h; dosed: Formamide; 300 mg/kg; oral; Female; F344
Rat [35] = assay: concentration in plasma after dosing; conditions: 2 h; dosed: Formamide; 30 mg/kg; iv; Female; F344
Rat [36] = assay: concentration in plasma after dosing; conditions: dosed: Formamide, 36 mg/kg, oral, Female, Harlan Sprague Dawley; remark: listed apart in the source
Rat [37] = assay: concentration in plasma after dosing; conditions: dosed: Pyridine, 25 mg/kg, oral, Female, F344
Rat [38] = assay: concentration in plasma after dosing; conditions: 5 h; dosed: Pyridine; 200 mg/kg; oral; Female; F344

Question: With `CC1CCCO1` (configuration not stated) [2-Methyltetrahydrofuran] as the compound, how does the concentration in brain (Rat [1]) read?
Answer: 0.549 µg/g

Question: What about the concentration in plasma (Rat [2]) of the same compound?
Answer: 2160 ng/mL

Question: What about the concentration in brain (Rat [3]) of the same compound?
Answer: 0.0558 µg/g

Question: And the concentration in plasma (Rat [4])?
Answer: 2110 ng/mL

Question: And the concentration in plasma (Rat [5])?
Answer: 72.7 ng/mL

Question: And the concentration in plasma (Rat [6])?
Answer: 14600 ng/mL

Question: And the concentration in plasma (Rat [7])?
Answer: 70500 ng/mL

Question: What about the concentration in plasma (Rat [8]) of the same compound?
Answer: 201000 ng/mL

Question: And the concentration in plasma (Rat [9])?
Answer: 539 ng/mL

Question: What about the concentration in brain (Rat [10]) of the same compound?
Answer: 3.25 µg/g

Question: What about the concentration in plasma (Rat [11]) of the same compound?
Answer: 17900 ng/mL

Question: What about the concentration in plasma (Rat [12]) of the same compound?
Answer: 210 ng/mL

Question: And the concentration in plasma (Rat [13])?
Answer: 7610 ng/mL

Question: What about the concentration in plasma (Rat [14]) of the same compound?
Answer: 6020 ng/mL

Question: And the concentration in brain (Rat [15])?
Answer: 46.3 µg/g

Question: And the concentration in plasma (Rat [16])?
Answer: 16500 ng/mL

Question: What about the concentration in brain (Rat [17]) of the same compound?
Answer: 78.2 µg/g

Question: What about the concentration in brain (Rat [18]) of the same compound?
Answer: 4.7 µg/g

Question: And the concentration in brain (Rat [19])?
Answer: 3.05 µg/g

Question: What about the concentration in brain (Rat [20]) of the same compound?
Answer: 1.02 µg/g

Question: With `O=C(O)C(Cl)Br` (configuration not stated) [Bromochloroacetic acid] as the compound, how does the concentration in plasma (Rat [21]) read?
Answer: 261 ng/mL

Question: What about the concentration in plasma (Rat [22]; 10 min) of the same compound?
Answer: 3930 ng/mL

Question: What about the concentration in plasma (Rat [22]; 4.5 h) of the same compound?
Answer: 2060 ng/mL

Question: What about the concentration in plasma (Rat [23]; 1 h) of the same compound?
Answer: 24700 ng/mL

Question: What about the concentration in plasma (Rat [23]; 3 h) of the same compound?
Answer: 1070 ng/mL

Question: For `OCCC(F)(F)C(F)(F)C(F)(F)C(F)(F)C(F)(F)C(F)(F)C(F)(F)C(F)(F)F` [Fluorotelomer alcohol 8+2], which concentration in plasma (Rat [24]; 0.5 h) is on record?
Answer: 726 ng/mL

Question: And the concentration in plasma (Rat [24]; 9 h)?
Answer: 829 ng/mL

Question: And the concentration in plasma (Rat [25]; 1 h)?
Answer: 585 ng/mL

Question: And the concentration in plasma (Rat [25]; 24 h)?
Answer: 2.33 ng/mL

Question: What about the concentration in plasma (Rat [26]; 1 h) of the same compound?
Answer: 639 ng/mL

Question: What about the concentration in plasma (Rat [26]; 24 h) of the same compound?
Answer: 4.45 ng/mL

Question: What about the concentration in plasma (Rat [27]; 0.25 h) of the same compound?
Answer: 86 ng/mL

Question: What about the concentration in plasma (Rat [27]; 6 h) of the same compound?
Answer: 150 ng/mL

Question: With `NC=O` [Formamide] as the compound, how does the concentration in plasma (Rat [28]; 10 min) read?
Answer: 15500 ng/mL

Question: What about the concentration in plasma (Rat [28]; 20 h) of the same compound?
Answer: 18600 ng/mL

Question: What about the concentration in plasma (Rat [29]; 10 min) of the same compound?
Answer: 27500 ng/mL

Question: And the concentration in plasma (Rat [29]; 20 h)?
Answer: 12300 ng/mL

Question: What about the concentration in plasma (Rat [30]; 1 h) of the same compound?
Answer: 181000 ng/mL

Question: And the concentration in plasma (Rat [30]; 3 h)?
Answer: 135000 ng/mL

Question: What about the concentration in plasma (Rat [31]; 8 h) of the same compound?
Answer: 407000 ng/mL

Question: What about the concentration in plasma (Rat [31]; 12 h) of the same compound?
Answer: 335000 ng/mL

Question: And the concentration in plasma (Rat [32]; 2 h)?
Answer: 162000 ng/mL

Question: And the concentration in plasma (Rat [32]; 96 h)?
Answer: 2700 ng/mL

Question: What about the concentration in plasma (Rat [33]; 10 min) of the same compound?
Answer: 45500 ng/mL

Question: And the concentration in plasma (Rat [33]; 18 h)?
Answer: 13400 ng/mL

Question: And the concentration in plasma (Rat [34])?
Answer: 184000 ng/mL

Question: What about the concentration in plasma (Rat [35]) of the same compound?
Answer: 34400 ng/mL

Question: What about the concentration in plasma (Rat [36]; 0.5 h) of the same compound?
Answer: 32400 ng/mL

Question: And the concentration in plasma (Rat [36]; 48 h)?
Answer: 2400 ng/mL

Question: For `c1ccncc1` [Pyridine], which concentration in plasma (Rat [37]; 2 h) is on record?
Answer: 18000 ng/mL

Question: And the concentration in plasma (Rat [37]; 14 h)?
Answer: 10500 ng/mL

Question: And the concentration in plasma (Rat [38])?
Answer: 83400 ng/mL
